Data taken from PubChem BioAssay AID686979 (National Center for Advancing Translational Sciences (NCATS), 2013).
The campaign covered roughly 420,000 compounds. About 50,000 (12%) were called active. Inconclusive means that the source gave no clear call. Such entries were picked first, then a sample of the others. Calls come from the whole dose curve; as a rule, active = well fitted inhibition curve with a large enough effect; inconclusive = small, poorly fitted or top-dose-only effect; inactive = flat fitted curve, though single readings scatter. No potency is given beside an inconclusive call; the fits are too rough.

Assay: qHTS for Inhibitors of human tyrosyl-DNA phosphodiesterase 1 (TDP1): qHTS in cells in presence of CPT; note: nearly all actives have a fitted effect of over 55% in size
Settings: chicken DT40 Tdp1-/-;hTDP1 cells + 20 nM CPT, ATP luminescence, 48 h; activity change, negative = growth inhibition: at 46.2 µM (top of the series) unless noted
Outline: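 Chicken DT40 Tdp1-/- cells stably complemented with human TDP1 were seeded at 400 cells/well in medium containing 20 nM camptothecin, exposed to pin-transferred compounds, and grown at 37 °C for at least 48 hr. Viability was read as ATP luminescence.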
% is set by controls: 0 for no effect and ±100 for the full control effect; potency is the fitted concentration of half-maximal effect; tags give direction and shape of the fitted curve.

Row | SMILES | activity change, negative = growth inhibition | Potency
1 | OC(CN1CCC(Cc2ccc(F)cc2)CC1)c1ccc(Cl)cc1 (centres undefined) | inactive: -2.27% | 
2 | O=C(CCS(=O)(=O)c1ccccc1)Nc1nnc(C(F)(F)F)s1 |  | inconclusive [inhibitor, single point]
3 | Cc1ccc(NC(=O)C2CCC2)cc1S(=O)(=O)N1CCCCCC1 |  | inconclusive [inhibitor, single point]
4 | Cc1ccc(C(=O)N2CCN(c3ncccn3)CC2)cc1 | inactive: -0.554% | 
5 | Cc1cccc(Oc2ccc(NC(=O)CCC(=O)OCC(=O)c3ccc(Br)cc3)cc2)c1C |  | active: 13 µM
6 | CC(=O)C1=C(C)OC2(O)c3ccccc3C(=O)C12O (centres undefined) |  | inconclusive [inhibitor, single point]
7 | CN=C1S/C(=C\c2ccc(N3CCOCC3)c(F)c2)C(=O)N1C |  | inconclusive [inhibitor, partial curve, poor fit]
8 | CC(C)(C)c1ccc(Cn2nnc3c(=O)[nH]c(C4CCCN(C(=O)Cc5cccs5)C4)nc32)cc1 (centres undefined) |  | active: 23.1 µM
9 | Cc1ccsc1C(=O)N(CC(C)C)c1c(N)n(Cc2ccccc2)c(=O)[nH]c1=O | inactive: 1.8% | 
10 | COc1ccc2nc(NNC(=O)COc3ccccc3)sc2c1 | inactive: -4.57% | 
11 | O=C(COc1ccc2c(-c3ccccc3)cc(=O)oc2c1)NCCCN1CCOCC1 |  | inconclusive [inhibitor, partial curve]
12 | Cc1occc1C(=O)Nc1cccc2ccccc12 |  | inconclusive [inhibitor, single point]
13 | COC(=O)CNc1cc(S(=O)(=O)N2CCCCC2)ccc1Oc1ccc(C(=O)OC)cc1 |  | inconclusive [inhibitor, single point]
14 | COc1cc(/C=N/N=C2/NC(=O)C(CC(=O)O)S2)ccc1OCc1cccc(Cl)c1 (centres undefined) | inactive: 32.7% | 
15 | O=C(COc1ccccc1[N+](=O)[O-])Nc1ccc(N2CCN(C(=O)c3cccs3)CC2)cc1 |  | active: 4.61 µM
16 | CC(C)(C)OC(=O)N1CCC2(CC1)Oc1ccc(F)cc1C(=O)C21CC(c2ccccc2)=NO1 (centres undefined) |  | active: 23.1 µM
17 | Cc1ccc(S(=O)(=O)NC(=O)C2(C)CCN2C(=O)C2CCCCC2)nc1 (centres undefined) | inconclusive: -34.8% [inhibitor] | 
18 | Cc1cc(NC(=O)c2ccc(C)s2)n(-c2nc3ccccc3[nH]2)n1 |  | inconclusive [inhibitor, single point]
19 | O=C(C1CCN(S(=O)(=O)c2ccc(Br)s2)CC1)N1CCN(C2CCCCC2)CC1 |  | inconclusive [inhibitor, single point]
20 | Cc1ccc(C)c(CSc2cn(CCNC(=O)c3ccccc3F)c3ccccc23)c1 |  | inconclusive [inhibitor, single point]
21 | O=C(CSc1ncnc2sccc12)Nc1ccc(S(=O)(=O)N2CCOCC2)cc1 |  | inconclusive [inhibitor, single point]
22 | COC(=O)C1=C(C(=O)OC)[C@@H]2N(C)c3ccccc3[C@@]23C[C@@H](C(=O)OC)N(C(=O)CC(C)C)C3=N1 |  | inconclusive [inhibitor, single point]
23 | Cc1cccc(NC(=S)NNC(=O)c2ccccc2OC(F)F)c1 |  | active: 23.1 µM
24 | c1ccc(-c2noc(-c3ccc4ccccc4c3)n2)nc1 | inconclusive: -36.1% [inhibitor] | 
25 | O=C(O)CSc1cccc2cccnc12 | inconclusive: -1.89% [inhibitor] | 

Row | SMILES | activity change, negative = growth inhibition | Potency
26 | COc1ccc(C(=O)N/C(=C\c2cn(C)c3ccccc23)C(=O)N2CCN(C)CC2)cc1OC |  | inconclusive [inhibitor, single point]
27 | CCSc1ccc(/C(N)=N/OC(=O)c2cccs2)cn1 |  | inconclusive [inhibitor, single point]
28 | COc1ccc(OC)c(/C=C/c2sc3ccccc3[n+]2C)c1 |  | inconclusive [inhibitor, full curve, poor fit]
29 | CCCCNC(=O)[C@@](CC)(ONc1ccccc1C(F)(F)F)c1cccc2ccccc12 |  | active: 14.6 µM
30 | CC(=O)N(CCCN(C)C)CCC(C)CCC=C(C)C (centres undefined) |  | inconclusive [inhibitor, single point]
31 | O=C(COc1cccc2ccccc12)N1c2ccccc2CCc2ccccc21 |  | inconclusive [inhibitor, single point]
32 | Cc1cc(OCc2cc(C(=O)N3CCCCCC3)no2)cc(C)c1Cl |  | active: 14.6 µM
33 | CC1(C(=O)NCc2ccccc2Br)CCN1C(=O)C1(c2ccc(Cl)cc2)CC1 (centres undefined) |  | inconclusive [inhibitor, single point]
34 | Cc1cccc(S(=O)(=O)Nc2ccc(-c3nc4ccc(C)cc4s3)cc2)c1 |  | inconclusive [inhibitor, single point]
35 | COc1ccc(/C=C2\C(=O)N(c3c(Cl)cc(Cl)cc3Cl)N=C2NC(=O)c2cccc([N+](=O)[O-])c2)cc1 |  | active: 18.4 µM
36 | CCCCn1c2c(cc(C(=O)OC)c1=O)C(=O)CCC2 | inactive: 0.0794% | 
37 | O=C(/C=C/c1cccc(F)c1)OCC(=O)c1ccc[nH]1 | inactive: 3.95% | 
38 | CCOc1ccc(NC(=O)CN(C)C(=O)CCCOc2ccc(Br)cc2)cc1OCC |  | active: 18.4 µM
39 | O=C(NCc1cccnc1)c1ccc(NS(=O)(=O)c2ccccc2)cc1 | inactive: -16.7% | 
40 | COc1ccc(N(C)C(=O)Cc2c(C(=O)O)[nH]c3ccccc23)c(OC)c1 | inactive: 1.16% | 
41 | CCOc1ccccc1C(C(=O)NC1CCCC1)N(C(=O)c1csnn1)C1CC1 (centres undefined) | inactive: -6.26% | 
42 | Cc1ccc(C(=O)C2=C(O)C(=O)N(CC3CCCO3)C2c2ccccc2F)o1 (centres undefined) | inactive: 0.272% | 
43 | COc1ccccc1CNc1ncnc2cc(Cl)ccc12 |  | inconclusive [inhibitor, full curve, poor fit]
44 | CCOn1c(-n2nc(C)cc2C)nc2ccccc2c1=O | inactive: 8.7% | 
45 | COc1cc2c(cc1OC)C(COc1ccccc1OC)N(C(C)=O)CC2 (centres undefined) | inactive: -0.0425% | 
46 | COc1ccc(NC(=O)c2oc3ccc(S(=O)(=O)N4CCC5(CC4)OCCO5)cc3c2C)cc1Cl |  | active: 8.2 µM
47 | CCN(CC)C(=O)c1nc[nH]c1C(=O)N1CCN(c2ccccc2)CC1 |  | inconclusive [inhibitor, single point]
48 | CS(=O)(=O)N1CCN(c2ccc(NC(=O)c3cccnc3Cl)cc2)CC1 | inactive: -9.08% | 
49 | COc1ccc(CCNC(=O)c2ccc(NS(=O)(=O)c3ccc4[nH]c(=O)[nH]c4c3)cc2)cc1OC | inactive: -5.53% | 
50 | COc1cc(C2c3c(-c4ccccc4O)n[nH]c3C(=O)N2CCO)ccc1OCC(C)C (centres undefined) |  | inconclusive [inhibitor, single point]

Row | SMILES | activity change, negative = growth inhibition | Potency
51 | CC1CCCC(C)N1CC(O)Cn1c2ccccc2c2ccccc21 (centres undefined) |  | active: 1.84 µM
52 | C=CCOc1ccc(C2N3CC4(C)CN2CC(CCC)(C3)C4=O)cc1 (centres undefined) |  | inconclusive [inhibitor, single point]
53 | CCN(CC)CCNC(=O)c1cc2c(=O)oc3ccc(C)cc3c2s1 |  | inconclusive [inhibitor, single point]
54 | O=C1c2oc3ccccc3c(=O)c2C(c2cccs2)N1CCCN1CCOCC1 (centres undefined) |  | active: 18.4 µM
55 | CCCCOC(=O)Sc1nc2ccccc2o1 |  | inconclusive [inhibitor, single point]
56 | COc1cc(CN2CCN(Cc3cn(C)c4ccccc34)CC2CCO)cc(OC)c1 (centres undefined) |  | inconclusive [inhibitor, single point]
57 | CCOc1ccc(N2CC(C(=O)Nc3ccccc3N3CCOCC3)CC2=O)cc1 (centres undefined) |  | inconclusive [inhibitor, single point]
58 | CCCCc1ccc(NC(=O)CSc2nnc3[nH]c(=O)cc(C)n23)cc1 | inactive: -1.55% | 
59 | O=C(/C=C/c1ccc(Cl)cc1)Nc1nc(-c2cccs2)ns1 |  | inconclusive [inhibitor, single point]
60 | CC1(C(=O)NCc2ccccc2)Cc2c(-c3ccccc3)ccnc2O1 (centres undefined) |  | inconclusive [inhibitor, full curve, poor fit]
61 | O=S(=O)(c1ccccc1)N1CCC2(CCN(c3ncccn3)CC2)CC1 |  | inconclusive [inhibitor, single point]
62 | Cc1nn(C)c(C)c1S(=O)(=O)N(CC(=O)NCCCN1CC(C)CC(C)C1)c1ccc(C(C)C)cc1 (centres undefined) | inactive: -13.3% | 
63 | C/C=C(/C)C(=O)O[C@@H]1c2c(ccc3ccc(=O)oc23)O[C@@H]1C(C)(C)OC(C)=O |  | inconclusive [inhibitor, single point]
64 | COc1ccccc1Nc1nc2c(s1)CCC2 |  | active: 14.6 µM
65 | N#CCN(N=Nc1ccccc1)c1ccccc1 | inactive: -25.6% | 
66 | Cc1ccc(NC(=O)Cn2nnc3sc4c(c3c2=O)CCCC4)c(C)c1 |  | inconclusive [inhibitor, single point]
67 | Cc1ccc(SCCSc2ncccn2)cc1 |  | inconclusive [inhibitor, single point]
68 | COc1ccc(/C(=C\Nc2ccc(C)c(C)c2)C(C)=O)cc1OC |  | inconclusive [inhibitor, single point]
69 | Cc1ccc(C(=O)NCC(=O)OC(C)C(=O)Nc2ccc(N(C)C)cc2)s1 (centres undefined) | inactive: -3.7% | 
70 | Cc1cccc(C(O)c2ncc(-c3ccc(Cl)cc3)[nH]2)c1C (centres undefined) |  | inconclusive [inhibitor, single point]
71 | O=C(c1ccccc1)N1CCn2c(nc3ccccc32)C1 | inactive: 6.04% | 
72 | CCn1cc(C(=O)NCc2ccc(F)cc2)c(=O)c2cc(S(=O)(=O)N(C)C)ccc21 | inactive: -25% | 
73 | COc1ccc(-c2csc(C(NC(C)=O)c3ccc(F)c(F)c3)n2)cn1 (centres undefined) |  | active: 23.1 µM
74 | COc1ccc(CCNCC(O)COc2cccc(Br)c2)cc1 (centres undefined) |  | inconclusive [inhibitor, single point]
